Variants at the background level are over-represented here.
B1: TPR 5TU (parent)
chain: GGAUCUUCUCGAUCUAACAAAAAAGACAAAUCUGCCACAAAGCUUGAGAGCAUCUUCGGAUGCAGAGGCGGCAGCCUUCGGUGGCGCGAUAGCGCCAACGUUCUCAACUAUGACACGCAAAACGCGUGCUCCGUUGAAUGGAGUUUAUCAUG

Variants of: B1
Experiment: polymerase ribozyme fitness, log enrichment relative to wild type (log ratio); higher = more active; in vitro selection for triplet polymerase activity
How it was run: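 To select mutant libraries of each subunit of a heterodimeric triplet polymerase ribozyme, built by PCR and transcribed, each was annealed with a biotinylated primer, partner subunit and triplets, then incubated frozen at −7 °C. Extended constructs were gel-excised, captured on streptavidin beads and amplified by RT-PCR, in one round carried out in triplicate. Illumina sequencing of input and output libraries kept genotypes with ≥10 input reads and ≥1 read per output. Fitness is the base-2 logarithm of genotype enrichment relative to wild-type enrichment, from inverse-variance-weighted replicate averages.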

Row | Variant | polymerase ribozyme fitness (log ratio)
1 | GGAUCUUCUCAAUCUAACAAAAAAGACAAAUCUGCCACAAAGCUUGAGAGCGUCUUCGGAUGCAGAGGCGGCAGCCUUCGGUGGCGCGAUAGCGCCAACGUUCUCAUCUAUGACACGCAAAACGCGUGCUCCGUUGAAUGGAGUUUAUCAUG [G11A A52G A107U] | ≤ -4.2
2 | GGAUCUUCUCAAUCUAACAAAAAAGACAAAUCUGCCACAAAGCUUGAGAGCGAAUUCGGAUGCAGAGGCGGCAGCCUUCGGUGUCGCGAUAGCGCCAACGUUCUCAACUAUGACACGCAAAACGCGUUCUCUGUUGAAUGGAGUUUAUCAUG [G11A A52G U53A C54A G84U G128U C132U] | -4.13
3 | GGAUCUUCUCAAUCUAACAAAAAAGACAAAUCUGCCACAAAGCUUGAGAGCUUCUUAGGAUGCAGAGGCGGCAGCCUGCGGUGGAGCGAUAUCCCCAACGUUCUCAACUAUGACACGCUAAACGCGUCCUCCGUUGAAUGGAGUAUAUCAUG [G11A A52U C57A U78G C85A G92U G94C A119U G128C U145A] | ≤ -4.2
4 | GGAUCUUCUCAAUCUAACAAAAAAGACAAAUCUGCCACAAAGCUUGAGAGCAUCUUCGGAUGCAGAGGCGGCGGCCUUCGGUGGCGCGAUAACGCCAACGUUCUCAACUAUGACACGCAAGACGCGUGCUCCGUUGAAUGGAGUUUAUCAUG [G11A A73G G92A A121G] | ≤ -4.2
5 | GGAUCUUCUCAAUCUAACAAAAAAGACAAAUCUGCCACAAAGCUUGAGAGCAUCUUCGGAUGCAGAGGCGGCAGCCUUCGGUGGCGCGAUCGCGCCAACGUUCUCAACUAUGACACGCAAAACGCGUGCUCCGUUGAAUGGAGUUUAUCAUG [G11A A91C] | ≤ -4.2
6 | GGAUCUUCUCAAUCUAACAAAAAAGACAAAUCUGCCACAAAGCUUGAGAGCAUCUUCGGAUGCAGAGGCGGCAGCCUUCGGUGGCGCGAUGGCGCCAACGUUCUCAACUAUGAUACGCAAAACGCGUGCUCCGUUGAAUGGAGCUUAUCAUG [G11A A91G C114U U144C] | -4.14
7 | GGAUCUUCUCAAUCUAACAAAAAAGACAAAUCUGCCACAAAGCUUGAGAGCAUCUUCGGAUGCAGAGGCGGCAGCCUUCGGUGGCGCGAUUGCGCCAACGUUCUCAACUAUGACACGCAAAACGCGUGCUCCGUUGAAUGGAGUUUAUUACG [G11A A91U C149U U151C] | ≤ -4.2
8 | GGAUCUUCUCAAUCUAACAAAAAAGACAAAUCUGCCACAAAGCUUGAGAGCAUCUUCGGAUGCAGAGGCGGCAGCCUUCGGUGGCGCGAUAGCGCCAACGUUCUCAACUGUGACACGCAAAACGCGUGCUCCGUUGAAUGGAGUUUAUCAUG [G11A A110G] | -3.76
9 | GGAUCUUCUCAAUCUAACAAAAAAGACAAAUCUGCCACAAAGCUUGAGAGCAUCUUCGGAUGCAGAGGCGGCAGCCUUCGGUGGCGCGAUAGCGCCAACGUUCUCAACUAUGUCACGCAAAACGCGUGCUCCGUUGAAUGGAGUUUAUCAUG [G11A A113U] | -2.69
10 | GGAUCUUCUCAAUAUAACAAAAAAGACAAAUCUGCCACAGAGCUUGAGAGCAUCUUCGGAUGCAGAGGCGGCAGCCUUAGGUGGCGCGAUAGAGCCAACGUUCUCAACUAUGACACGCAAAACACGUGCUCCGUUGAAUGGAGUUUAUCAUG [G11A C14A A40G C79A C93A G124A] | ≤ -4.2
11 | GGAUCUUCUCAAUAUAACAAAAAAGACAAAUCUGCCACAAACCUUGAGAGCAUCUUCCGAUGCAGAGGCGGCAGCCUUCGGUGGCGCGAUGGCGCCAACGUUCUCACCUAUGGCACGCAAAACGCGUGCUCCGUUGAAUGGAGUUUAUCAUG [G11A C14A G42C G58C A91G A107C A113G] | ≤ -4.2
12 | GGAUCUUCUCAAUGUAACUAAAAAGACAUAUCUGCCACAUAGCUUGAGAGCAUCUUCGGAUGCAGAGGCGGCAGCUUUCGGUGGCGCGAUAGCGCCAACGUUCUCAGCUGUGACACGCAAAACGCGUGCUCCGUUGAAUGGAGUUUAUCAUG [G11A C14G A19U A29U A40U C76U A107G A110G] | ≤ -4.2
13 | GGAUCUUCUCAAUGUAACAAAAAAGACAAAUCUGCCACAUAGCUUGAGAGCAUCUUCGGAUGCAGAGGCGGCAGCCUUCGGUGGCGCGAUAGGGCCAACGUUCUCAACUAUGACAUGCAAAACGCGUGCUCCGUUGAAAGGAGUAUAUCAUG [G11A C14G A40U C93G C116U U139A U145A] | ≤ -4.2
14 | GGAUCUUCUCAAUGUAACAAAAAAGACAAAUCUGCCACAAAGCUUGAGAGCAACUGCGGAUGCAGAGGCGGCAGCCUUCGGUGGCGCGAUAGCGCUAACGUUCUCAACUAUGACACGCAAAACGCGUGCUCCGUUGAAUGGCGUUUAUCAUG [G11A C14G U53A U56G C96U A142C] | ≤ -4.2
15 | GGAUCUUCUCAAUUUAACAAAAAAGACAAAUCUGCCACAAAGCUUGAGAGCAUCUUCGGAUGCAGAGGCGGCAGCCUUCGGUGGCGCGAUAGCACCAACGUUCUCAACUAUGACACGCAAAACGCGUGCUCCGUUGAAUGGAGUUUAUCAUG [G11A C14U G94A] | ≤ -4.2
16 | GGAUCUUCUCAAUUUAACAAAAAAGACAAAUCGGCCACAAAGCAUGAGAGCAUCUUCGGAUGCAGAGGAGGCAGCCUUAGGUGGUGCGAUAGCGCCUACGUUCUCAACUAUGACACGCAAAACGCGUGCUCCGUUGAAUGGAGUUUAUCAUG [G11A C14U U33G U44A C69A C79A C85U A97U] | ≤ -4.2
17 | GGAUCUUCUCAAUCUAAGAAAAAAGACAAAUCUGCCACAAAGCUUGAUAGCAUCUUCGGAUGCAGAGGGGGCAGCCUUCGGUGUCGCGAUAGCGCCAACGUUCUCAACUAUGACACGCAAAACGCGUGCUCCGUUGAAUGUAGUUUAUCAUG [G11A C18G G48U C69G G84U G141U] | ≤ -4.2
18 | GGAUCUUCUCAAUCUAACAAAAAAGAAAAAUCUGCCACAAAGCUUGAGAGCAUCUUCGGAUGCAGAGGCGGCCACCUUCGAUGGCGCGUUAGGGCCAACGUUCUCAACUAUGACACGCAAAACGCUUGCUCCGUUGAAUGGAGUUUAUCAUG [G11A C27A A73C G74A G81A A89U C93G G126U] | ≤ -4.2
19 | GGAUCUUCUCAAUCUAACAAAAAAGACAAAUAUGCCACAAAGCUUGAGAGCAUCUUCGGAUGCAGAGGCGGCAGCCUUCGGUGGCGCGAUAGUGCCAACGUUCUCAACUAUGACACGCAAAACGCGUGCUCCGUUGAAUGGAGUUUAUCAUG [G11A C32A C93U] | ≤ -4.2

Source: the RNAGym collection of RNA variant scans (doi:10.1073/pnas.2313332121)
